Measurements as given in article PMC7679444.
These are yes or no findings as the source states them, for the method shown. In cells and extracts the contact can be indirect. Some entries that bind do so weakly or less than the wild type. Sequences can lack the tags named with a protein.

The chains behind the UniProt entries cited, without tags or fusion partners. Where a name states a change or a piece, a line headed by the entry shows the natural chain unless it says otherwise. Residues count along the entry.
GST-ΔWDD (ATG16L1 1–319) (Q676U5, residues 1-319): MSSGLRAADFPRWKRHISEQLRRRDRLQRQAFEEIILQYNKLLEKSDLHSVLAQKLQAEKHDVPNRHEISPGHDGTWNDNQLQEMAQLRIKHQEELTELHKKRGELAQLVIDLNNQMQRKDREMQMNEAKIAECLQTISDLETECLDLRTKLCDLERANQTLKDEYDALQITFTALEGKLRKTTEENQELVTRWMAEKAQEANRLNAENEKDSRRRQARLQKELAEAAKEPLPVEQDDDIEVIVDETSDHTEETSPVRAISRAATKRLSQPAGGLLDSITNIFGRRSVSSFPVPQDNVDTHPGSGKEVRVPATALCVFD
GST-WDD (ATG16L1 320–607) (Q676U5, residues 320-607): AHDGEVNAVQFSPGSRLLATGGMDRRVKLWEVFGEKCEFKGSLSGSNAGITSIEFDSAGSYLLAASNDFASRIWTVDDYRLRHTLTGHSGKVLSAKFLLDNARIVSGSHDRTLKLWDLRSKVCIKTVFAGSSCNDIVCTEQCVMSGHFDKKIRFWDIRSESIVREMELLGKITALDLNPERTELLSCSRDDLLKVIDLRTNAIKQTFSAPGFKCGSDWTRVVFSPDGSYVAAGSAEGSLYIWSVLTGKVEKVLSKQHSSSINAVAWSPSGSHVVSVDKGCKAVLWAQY

B1: IL-18R1, tagged (receptor, UniProt Q13478 19-541)
chain: AESCTSRPHITVVEGEPFYLKHCSCSLAHEIETTTKSWYKSSGSQEHVELNPRSSSRIALHDCVLEFWPVELNDTGSYFFQMKNYTQKWKLNVIRRNKHSCFTERQVTSKIVEVKKFFQITCENSYYQTLVNSTSLYKNCKKLLLENNKNPTIKKNAEFEDQGYYSCVHFLHHNGKLFNITKTFNITIVEDRSNIVPVLLGPKLNHVAVELGKNVRLNCSALLNEEDVIYWMFGEENGSDPNIHEEKEMRIMTPEGKWHASKVLRIENIGESNLNVLYNCTVASTGGTDTKSFILVRKADMADIPGHVFTRGMIIAVLILVAVVCLVTVCVIYRVDLVLFYRHLTRRDETLTDGKTYDAFVSYLKECRPENGEEHTFAVEILPRVLEKHFGYKLCIFERDVVPGGAVVDEIHSLIEKSRRLIIVLSKSYMSNEVRYELESGLHEALVERKIKIILIEFTPVTDFTFLPQSLKLLKSHRVLKWKADKSLSYNSRFWKNLLYLMPAKTVKPGRDEPEVLPVLSES
B2: IL-18RAP, tagged (receptor, UniProt O95256 20-599)
chain: FNISGCSTKKLLWTYSTRSEEEFVLFCDLPEPQKSHFCHRNRLSPKQVPEHLPFMGSNDLSDVQWYQQPSNGDPLEDIRKSYPHIIQDKCTLHFLTPGVNNSGSYICRPKMIKSPYDVACCVKMILEVKPQTNASCEYSASHKQDLLLGSTGSISCPSLSCQSDAQSPAVTWYKNGKLLSVERSNRIVVDEVYDYHQGTYVCDYTQSDTVSSWTVRAVVQVRTIVGDTKLKPDILDPVEDTLEVELGKPLTISCKARFGFERVFNPVIKWYIKDSDLEWEVSVPEAKSIKSTLKDEIIERNIILEKVTQRDLRRKFVCFVQNSIGNTTQSVQLKEKRGVVLLYILLGTIGTLVAVLAASALLYRHWIEIVLLYRTYQSKDQTLGDKKDFDAFVSYAKWSSFPSEATSSLSEEHLALSLFPDVLENKYGYSLCLLERDVAPGGVYAEDIVSIIKRSRRGIFILSPNYVNGPSIFELQAAVNLALDDQTLKLILIKFCYFQEPESLPHLVKKALRVLPTVTWRGLKSVPPNSRFWAKMRYHMPVKNSQGFTWNQLRITSRIFQWKGLSRTETTGRSSQPKEW

Experiments:
[1] = biological target: GST-ΔWDD (ATG16L1 1–319) (human) (UniProt Q676U5); assay: co-IP; HEK-293T co-transfected with tagged receptor and GST-fused ATG16L1 fragment, lysed 36 h later (1% Igepal CA-630, diluted to 0,2%), GST precipitated with GSH-agarose beads, Western blot
[2] = biological target: GST-WDD (ATG16L1 320–607) (human) (UniProt Q676U5); assay: as above

binding [1]	binding [2]	Binder
no binding	binds	B1
no binding	binds	B2
